Experimental data from PubChem BioAssay AID1224863 (Southern Research Institute, 2016).
Several values for one entry are separate records, joined by “and”; a condition that tells them apart may be missing. Equal entries are not always repeated. This is one part of the list. Shown are side measurements of this screen, not its main read-out; they come without a call.

Tests used:
[1] = compounds raising F508del-CFTR protein level – cell-based, HeLa F508del-CFTR, immunofluorescence, viability, primary screen (AID 1224863); conditions: immunofluorescence total CFTR, 24 h, stronger effect = higher value; min viability: measured here: HeLa viability, alamarBlue, dose 50, library dosed in µM unless noted; viability: measured here: primary viability 25 uM, at 25 µM, library dosed in µM unless noted;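 as to fold increase: total CFTR protein by anti-CFTR immunofluorescence in fixed cells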
[2] = target: Cystic fibrosis transmembrane conductance regulator (Homo sapiens) (UniProt P13569); experiment: as above; conditions: immunofluorescence total CFTR, 24 h, stronger effect = higher value; measured here: primary screen single dose 25 uM, at 25 µM, library dosed in µM unless noted
Sequence of UniProt P13569 (P13569 whole entry, looked up): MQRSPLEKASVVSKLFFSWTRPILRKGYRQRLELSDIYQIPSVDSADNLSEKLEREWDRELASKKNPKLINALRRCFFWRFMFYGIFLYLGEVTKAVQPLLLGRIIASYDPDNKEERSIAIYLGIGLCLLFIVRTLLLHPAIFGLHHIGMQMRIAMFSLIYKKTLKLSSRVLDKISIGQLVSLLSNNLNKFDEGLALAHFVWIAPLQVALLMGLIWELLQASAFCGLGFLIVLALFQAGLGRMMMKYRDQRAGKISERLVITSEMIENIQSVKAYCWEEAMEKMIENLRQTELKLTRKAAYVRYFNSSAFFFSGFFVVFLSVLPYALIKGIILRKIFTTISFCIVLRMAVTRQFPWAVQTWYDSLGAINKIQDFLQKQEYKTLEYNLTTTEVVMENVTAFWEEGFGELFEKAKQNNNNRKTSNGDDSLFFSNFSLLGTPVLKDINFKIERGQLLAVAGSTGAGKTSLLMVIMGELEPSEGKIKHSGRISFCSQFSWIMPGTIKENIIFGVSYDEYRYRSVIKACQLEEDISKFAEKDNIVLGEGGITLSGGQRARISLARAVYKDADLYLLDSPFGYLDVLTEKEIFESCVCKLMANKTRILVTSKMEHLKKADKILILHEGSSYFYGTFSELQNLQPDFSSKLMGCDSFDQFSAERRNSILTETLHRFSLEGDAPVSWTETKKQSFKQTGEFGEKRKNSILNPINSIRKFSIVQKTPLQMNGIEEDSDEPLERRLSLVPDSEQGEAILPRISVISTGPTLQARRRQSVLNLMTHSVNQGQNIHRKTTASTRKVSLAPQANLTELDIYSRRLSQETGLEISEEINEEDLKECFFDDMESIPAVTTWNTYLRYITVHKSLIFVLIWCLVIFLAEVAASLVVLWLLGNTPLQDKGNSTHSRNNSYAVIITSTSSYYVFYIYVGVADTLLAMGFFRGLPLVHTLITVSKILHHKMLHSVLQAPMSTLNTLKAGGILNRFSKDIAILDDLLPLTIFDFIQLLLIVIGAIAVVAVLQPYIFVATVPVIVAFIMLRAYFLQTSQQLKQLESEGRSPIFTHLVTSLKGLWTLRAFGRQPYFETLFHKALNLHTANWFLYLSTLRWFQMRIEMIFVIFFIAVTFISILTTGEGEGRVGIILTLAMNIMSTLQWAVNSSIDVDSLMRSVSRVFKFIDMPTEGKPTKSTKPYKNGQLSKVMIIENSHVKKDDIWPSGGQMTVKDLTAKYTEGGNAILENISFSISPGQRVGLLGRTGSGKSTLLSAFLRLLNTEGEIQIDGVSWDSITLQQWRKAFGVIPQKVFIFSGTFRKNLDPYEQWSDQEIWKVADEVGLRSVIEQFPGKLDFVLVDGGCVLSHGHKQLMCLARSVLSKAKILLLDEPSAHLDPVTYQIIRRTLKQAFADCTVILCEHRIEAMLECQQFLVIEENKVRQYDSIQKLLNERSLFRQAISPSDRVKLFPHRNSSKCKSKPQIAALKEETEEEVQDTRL

SMILES	viability [1]	fold increase [2]	min viability [1]
CN1C2CCC1CC(OC(=O)C(CO)c1ccccc1)C2 (stereo not given)	83%	1.05	–
O=C(OC[C@H]1O[C@H](OC(=O)c2cc(O)c(O)c(OC(=O)c3cc(O)c(O)c(O)c3)c2)[C@H](OC(=O)c2cc(O)c(O)c(OC(=O)c3cc(O)c(O)c(O)c3)c2)[C@@H](OC(=O)c2cc(O)c(O)c(OC(=O)c3cc(O)c(O)c(O)c3)c2)[C@@H]1OC(=O)c1cc(O)c(O)c(OC(=O)c2cc(O)c(O)c(O)c2)c1)c1cc(O)c(O)c(OC(=O)c2cc(O)c(O)c(O)c2)c1	83%	1.9	66.9% [measured here: HeLa viability, alamarBlue, dose 3.13, library dosed in µM]
CN(C)CCSc1nc2ccccc2c2nc(=O)c(-c3ccccc3)nn12	83% [measured here: primary viability 10 ug/mL, library dosed in µg/mL]	1.82 [measured here: primary screen 10 ug/mL, library dosed in µg/mL]	67.9% [measured here: HeLa viability, alamarBlue, dose 20, library dosed in µg/mL]
Cc1ccsc1/C=c1\s/c(=C\C(=O)c2ccco2)n(C)c1=O	96% [measured here: primary viability 10 ug/mL, library dosed in µg/mL]	3.01 [measured here: primary screen 10 ug/mL, library dosed in µg/mL]	75.8% [measured here: HeLa viability, alamarBlue, dose 0.078, library dosed in µg/mL]
CN(C/C=C/C#CC(C)(C)C)Cc1cccc2ccccc12	–	–	67.4% [measured here: HeLa viability, alamarBlue, dose 25, library dosed in µM]
CC[n+]1c(-c2ccccc2)c2cc(N)ccc2c2ccc(N)cc21	82%	1.82	66%
Cc1ccccc1Cn1ncc(Cl)c(Cl)c1=O	73% [measured here: primary viability 10 ug/mL, library dosed in µg/mL]	1.24 [measured here: primary screen 10 ug/mL, library dosed in µg/mL]	58.9% [measured here: HeLa viability, alamarBlue, dose 0.039, library dosed in µg/mL]
O=c1cc(CN2CCCCC2)[nH]c(=O)[nH]1	68% [measured here: primary viability 10 ug/mL, library dosed in µg/mL]	1.27 [measured here: primary screen 10 ug/mL, library dosed in µg/mL]	87.2% [measured here: HeLa viability, alamarBlue, dose 5, library dosed in µg/mL]
Cn1cc(C(=O)NC2CCN(C(=O)Nc3nnc(C4CC4)s3)CC2)cn1	90% [measured here: primary viability 10 ug/mL, library dosed in µg/mL]	1.7 [measured here: primary screen 10 ug/mL, library dosed in µg/mL]	66% [measured here: HeLa viability, alamarBlue, dose 0.039, library dosed in µg/mL]
N#Cc1nc2c(S(=O)(=O)c3ccccc3)c(N)n(Cc3cccnc3)c2nc1C#N	73% [measured here: primary viability 10 ug/mL, library dosed in µg/mL]	1.52 [measured here: primary screen 10 ug/mL, library dosed in µg/mL]	92.1% [measured here: HeLa viability, alamarBlue, dose 5, library dosed in µg/mL]
CCCCn1c(N)c(N(CCC(C)C)C(=O)CCNC(=O)NC23CC4CC(CC(C4)C2)C3)c(=O)[nH]c1=O	100% [measured here: primary viability 10 ug/mL, library dosed in µg/mL]	2.42 [measured here: primary screen 10 ug/mL, library dosed in µg/mL]	70.8% [measured here: HeLa viability, alamarBlue, dose 0.31, library dosed in µg/mL]
O=S(=O)(Nc1ccc(-c2cn3cccnc3n2)cc1)c1ccc2c(c1)OCCO2	79% [measured here: primary viability 10 ug/mL, library dosed in µg/mL]	3.94 [measured here: primary screen 10 ug/mL, library dosed in µg/mL]	67.9% [measured here: HeLa viability, alamarBlue, dose 20, library dosed in µg/mL]
CCC(C)(C)C(=O)O[C@H]1C[C@@H](C)C=C2C=C[C@H](C)[C@H](CC[C@@H]3C[C@@H](O)CC(=O)O3)[C@H]21	83% and 88%	1.57 and 1.2 and 1.52	79.5% [measured here: HeLa viability, alamarBlue, dose 0.09, library dosed in µM]
O=C1c2c(O)ccc(O)c2C(=O)c2c(NCCNCCO)ccc(NCCNCCO)c21	54% and 37% and 70%	0.85 and 0.55 and 3.24	48.1%
CC1CN(C(C)(C)CNC(=O)c2ccc(Br)s2)CC(C)O1 (stereo not given)	95% [measured here: primary viability 10 ug/mL, library dosed in µg/mL]	4.54 [measured here: primary screen 10 ug/mL, library dosed in µg/mL]	69.6% [measured here: HeLa viability, alamarBlue, dose 0.078, library dosed in µg/mL]
O=C1N=C(O)CN1/N=C/c1ccc(-c2ccc([N+](=O)[O-])cc2)o1	104%	1.83	61% [measured here: HeLa viability, alamarBlue, dose 3.13, library dosed in µM]
CCCCC1C(=O)N(c2ccccc2)N(c2ccc(O)cc2)C1=O (stereo not given)	84%	1.94	62.6%
Cc1ccc2c(COc3cccc4c3CCC4=O)cc(=O)oc2c1	84% [measured here: primary viability 10 ug/mL, library dosed in µg/mL]	1.74 [measured here: primary screen 10 ug/mL, library dosed in µg/mL]	66% [measured here: HeLa viability, alamarBlue, dose 2.5, library dosed in µg/mL]
Cc1nc(N2CCC3(CC2)OCCO3)c2c(-c3cccs3)csc2n1	91% [measured here: primary viability 10 ug/mL, library dosed in µg/mL]	1.62 [measured here: primary screen 10 ug/mL, library dosed in µg/mL]	62.4% [measured here: HeLa viability, alamarBlue, dose 5, library dosed in µg/mL]
COC(=O)c1ccoc1COC(=O)c1cc2c(cc1[N+](=O)[O-])OCO2	106% [measured here: primary viability 10 ug/mL, library dosed in µg/mL]	1.66 [measured here: primary screen 10 ug/mL, library dosed in µg/mL]	70.3% [measured here: HeLa viability, alamarBlue, dose 0.63, library dosed in µg/mL]
Oc1c(Cl)cc(Cl)c2cccnc12	75% and 73%	1.76 and 1.16	59.9%
O=C(NCCN1CCCCCC1=O)C1CCCC1	92% [measured here: primary viability 10 ug/mL, library dosed in µg/mL]	2.74 [measured here: primary screen 10 ug/mL, library dosed in µg/mL]	89.4% [measured here: HeLa viability, alamarBlue, dose 0.039, library dosed in µg/mL]
O=C(O)C[C@H](O)C[C@H](O)/C=C/c1c(C2CC2)nc2ccccc2c1-c1ccc(F)cc1	94%	1.63	65.5% [measured here: HeLa viability, alamarBlue, dose 6.25, library dosed in µM]
Cc1cc2oc(=O)cc(CN3C(=O)NC(C)(c4ccccc4Cl)C3=O)c2cc1C (stereo not given)	63% [measured here: primary viability 10 ug/mL, library dosed in µg/mL]	1.12 [measured here: primary screen 10 ug/mL, library dosed in µg/mL]	72.6% [measured here: HeLa viability, alamarBlue, dose 0.63, library dosed in µg/mL]
CC(C)C[C@@H](NC(=O)[C@H](Cc1ccccc1)NC(=O)c1cnccn1)B(O)O	63%	2.94	51.7%
CC[C@@]1(O)C(=O)OCc2c1cc1n(c2=O)Cc2cc3c(CN(C)C)c(O)ccc3nc2-1	108% and 78% and 77%	1.01 and 1.33 and 1.53	68.5%
